Experimental data reported in ChEMBL document CHEMBL3822426, “A cascade screening approach for the identification of Bcr-Abl myristate pocket binders active against wild type and T315I mutant” (Bioorg Med Chem Lett, 2016).

Legend:
[1] = substrate: C(=C/n1ncc2c(NC3CCCCC3)ncnc21)\c1ccccc1; details: Homo sapiens; 25 uM
[2] = substrate: C(=C/n1ncc2c(NC3CCCCC3)ncnc21)\c1ccccc1; details: Homo sapiens; 100 uM
[3] = substrate: C(=C/n1ncc2c(NC3CCCCC3)ncnc21)\c1ccccc1; details: Homo sapiens; 50 uM

B1: Tyrosine-protein kinase ABL1 (Homo sapiens) (protein)
chain: MLEICLKLVGCKSKKGLSSSSSCYLEEALQRPVASDFEPQGLSEAARWNSKENLLAGPSE[letters of about 60 residues not shown]LEKHSWYHGPVSRNAAEYLLSSGINGSFLVRESESSPGQRSISLRYEGRVYHYRINTASDGKLYVSSESRFNTLAELVHHHSTVADGLITTLHYPAPKRNKPTVYGVSPNYDKWEMERTDITMKHKLGGGQYGEVYEGVWKKYSLTVAVKTLKEDTMEVEEFLKEAAVMKEIKHPNLVQLLGVCTREPPFYIITEFMTYGNLLDYLRECNRQEVNAVVLLYMATQISSAMEYLEKKNFIHRDLAARNCLVGENHLVKVADFGLSRLMTGDTYTAHAGAKFPIKWTAPESLAYNKFSIKSDVWAFGVLLWEIATYGMSPYPGIDLSQVYELLEKDYRMERPEGCPEKVYELMRACWQWNPSDRPSFAEIHQAFETMFQESSISDEVEKELGKQGVRGAVSTLLQAPELPTKTRTSRRAAEHRDTTDVPEMPHSKGQGESDPLDHEPAVSPLLPRKERGPPEGGLNEDERLLPKDKKTNLFSALIKKKKKTAPTPPKRSSSFREMDGQPERRGAGEEEGRDISNGALAFTPLDTADPAKSPKPSNGAGVPNGALRESGGSGFRSPHLWKKSSTLTSSRLATGEEEGGGSSSKRFLRSCSASCVPHGAKDTEWRSVTLPRDLQSTGRQFDSSTFGGHKSEKPALPRKRAGENRSDQVTRGTVTPPPRLVKKNEEAADEVFKDIMESSPGSSPPNLTPKPLRRQVTVAPASGLPHKEEAGKGSALGTPAAAEPVTPTSKAGSGAPGGTSKGPAEESRVRRHKHSSESPGRDKGKLSRLKPAPPPPPAASAGKAGGKPSQSPSQEAAGEAVLGAKTKATSLVDAVNSDAAKPSQPGEGLKKPVLPATPKPQSAKPSGTPISPAPVPSTLPSASSALAGDQPSSTAFIPLISTRVSLRKTRQPPERIASGAITKGVVLDSTEALCLAISRNSEQMASHSAVLEAGKNLYTFCVSYVDSIQQMRNKFAFREAINKLENNLRELQICPATAGSGPAATQDFSKLLSSVKEISDIVQR
Km [1]: 47.5 µM | Km [2]: 48.3 µM | Km [3]: 49.8 µM
